Experimental data as given in PubChem BioAssay AID485294 (National Center for Advancing Translational Sciences (NCATS), 2010).
Screen size: about 370,000 compounds; about 150 (0.041%) were called active. The inconclusive results got no clear call from the source; some entries with a clear call stand among them for comparison. Calls come from the whole dose curve; as a rule, active = well fitted inhibition curve with a large enough effect; inconclusive = small, poorly fitted or top-dose-only effect; inactive = flat fitted curve, though single readings scatter. No potency is given beside an inconclusive call; the fits are too rough.

What follows are compounds tested against Beta-lactamase (Escherichia coli (strain K12)) (UniProt P00811) (assay: qHTS Inhibitors of AmpC Beta-Lactamase (assay with detergent)). Settings: AmpC hydrolysis of nitrocefin, absorbance 480 nm, 0.01% Triton; activity change, negative = inhibition: at 114 µM (top of the series).
Summary of the method: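 AmpC (5.3 nM in the dispensed reagent) in 20 mM phosphate pH 7.0 with 0.01% (detergent screen) or 0.0001% Triton X-100 was preincubated with compounds for 15 min at room temperature. Nitrocefin was then added from an 800 uM solution, and hydrolysis was followed at 480 nm.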
Note: nearly all actives have a fitted effect of over 25% in size.
Potency is the fitted concentration of half-maximal effect; tags give direction and shape of the fitted curve.
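Throughout, for activity change, negative = inhibition: 0% = no-compound wells and -100% = no-enzyme wells.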

Sequence of UniProt P00811 (P00811 whole entry, looked up): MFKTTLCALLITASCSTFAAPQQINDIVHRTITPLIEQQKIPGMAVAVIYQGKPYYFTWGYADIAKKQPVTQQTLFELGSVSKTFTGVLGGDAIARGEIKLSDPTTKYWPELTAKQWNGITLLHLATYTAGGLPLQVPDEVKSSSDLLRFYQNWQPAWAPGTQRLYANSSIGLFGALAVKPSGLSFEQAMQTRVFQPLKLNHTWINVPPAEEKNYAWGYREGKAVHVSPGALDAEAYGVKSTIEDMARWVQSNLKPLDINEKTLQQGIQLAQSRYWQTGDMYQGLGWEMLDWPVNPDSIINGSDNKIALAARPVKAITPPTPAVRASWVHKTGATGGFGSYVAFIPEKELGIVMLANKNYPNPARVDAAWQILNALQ

| Compound | Potency | activity change, negative = inhibition |
| --- | --- | --- |
| COc1ccc(NC(=O)c2cccnc2N2CCCCC2)cc1 | inconclusive [inhibitor, full curve, poor fit] |  |
| COc1ccc(-n2ccnc(SCC(=O)NCc3ccc(C)cc3)c2=O)cc1Cl | inconclusive [inhibitor, full curve, poor fit] |  |
| Cn1nnnc1SCCCNCc1cc(Br)ccc1OCc1ccccc1 |  | inactive: 12.4% |
| COc1ccc(/C=C\C(=O)NCc2ccc3c(c2)cc(C)n3C)cc1OC | inconclusive [inhibitor, full curve, poor fit] |  |
| Cc1cc(-c2n[nH]c(=S)n2Cc2ccco2)nn1C | inconclusive [inhibitor, full curve, poor fit] |  |
| CCOC(=O)c1cnn(-c2ccccc2)c1NC(=O)CCl | inconclusive [inhibitor, partial curve, poor fit] |  |
| C=C1N2CCC(CC2)C1(O)c1ccccc1C (centres undefined) | inconclusive [inhibitor, full curve, poor fit] |  |
| COc1cccc(C2CC(c3c(F)cccc3Cl)n3nc(N)nc3N2)c1 (centres undefined) |  | inactive: 4.64% |
| CC(C)CCNC(=O)C(c1ccncc1)N(Cc1cccs1)C(=O)Cn1nnc(-c2ccc(F)cc2)n1 (centres undefined) | inconclusive [inhibitor, partial curve, poor fit] |  |
| CC(=O)c1ccc(OC(C)C(=O)OCC(=O)NCCc2ccccc2)cc1 (centres undefined) |  | inactive: -6.38% |
| O=C(COc1ccc(Cl)cc1Cl)Nc1ccc(CN2CCOCC2)cc1 | inconclusive [inhibitor, partial curve] |  |
| COc1cccc(/C=C/c2ccncc2)c1OC | inconclusive [inhibitor, partial curve] |  |
| O=C(O)C1CCCN1c1ncccn1 (centres undefined) | inconclusive [inhibitor, full curve, poor fit] |  |
| CC(C)C1=Nc2cccc3cccc(c23)N1 |  | inactive: -6.98% |
| CC1(C)CC(C)(c2ccc(O)cc2O)N(c2ccc3ccccc3c2)C(=S)N1 (centres undefined) | inconclusive [inhibitor, full curve] |  |
| CCn1c(SCC(=O)OC(C)C)nnc1-c1cccc(Cl)c1 | inconclusive [inhibitor, partial curve, poor fit] |  |
| COc1ccc(OC)c(CN(CCN2CCOCC2)C(=O)Nc2ccccc2)c1 |  | inactive: -7.12% |
| CCCCOC(=O)C1=C(C)NC2=C(C(=O)CCC2)C1c1cc(OC)ccc1OC (centres undefined) | inconclusive [inhibitor, full curve] |  |
| O=C(Nc1ccc(S(=O)(=O)NC2=NCCCCC2)cc1)c1cc(F)c(F)cc1Cl | inconclusive [inhibitor, full curve] |  |
| O=C(c1ccc(-c2cccc(C(F)(F)F)c2)o1)N1CCCCCCC1 | inconclusive [inhibitor, full curve, poor fit] |  |
| Cc1ccc(S(=O)(=O)N2Cc3ccccc3CC2C(=O)NC(C)(C)C)cc1 (centres undefined) | inconclusive [inhibitor, full curve, poor fit] |  |
| O=C(/C=C/c1ccco1)N1CCCC(c2ccccc2)C1 (centres undefined) | inconclusive [inhibitor, single point] |  |
| Cc1cc(C(=O)COC(=O)c2ccc(N)c([N+](=O)[O-])c2)c(C)n1-c1ccc2c(c1)OCO2 | inconclusive [inhibitor, full curve] |  |

| Compound | Potency | activity change, negative = inhibition |
| --- | --- | --- |
| Cc1ccccc1NC(=S)NC(C)CCc1ccccc1 (centres undefined) | inconclusive [inhibitor, full curve, poor fit] |  |
| COc1cc(OC)cc(C(=O)NC(c2ccccc2)c2ccccc2)c1 | inconclusive [inhibitor, full curve, poor fit] |  |
| S=c1[nH]nc(COc2ccc3ccccc3c2)o1 | inconclusive [inhibitor, single point] |  |
| COc1ccc(C(=O)OC(C)CN2CCOCC2)cc1OC (centres undefined) | inconclusive [inhibitor, full curve, poor fit] |  |
| Cc1ccc(-n2cccc2/C=C2/C(=N)N3C(=NC2=O)SN=C3S(C)(=O)=O)cc1 | inconclusive [inhibitor, full curve] |  |
| CCC(=O)N1CCc2cc(CNS(=O)(=O)c3ccccc3F)ccc21 |  | inactive: 14.3% |
| COc1cc(CN2CCN(c3cccc(Cl)c3)CC2)cc(OC)c1OC |  | inactive: -6% |
| O=C1C2CCN(CC2)[C@@H]1Cc1ccc2ccccc2c1O | inconclusive [inhibitor, single point] |  |
| C=CCc1ccccc1OCC(O)CN(CC)CC (centres undefined) | inconclusive [inhibitor, single point] |  |
| Cc1ccc(-n2c(=O)c3oc4ccccc4c3n(Cc3ccccc3)c2=O)cc1C |  | inactive: 0.552% |
| O=c1c(Cl)c(Cl)cnn1Cc1nnc(-c2ccccc2Br)o1 | inconclusive [inhibitor, partial curve, poor fit] |  |
| O=C1CCCc2cc(S(=O)(=O)N3CCCC(C(=O)NCc4ccccc4Cl)C3)ccc2N1 (centres undefined) |  | inactive: 28% |
| Cn1c(=O)[nH]c(NC2CCCCC2)c([N+](=O)[O-])c1=O |  | inactive: 2.16% |
| O=[n+]1c2c(n([O-])c3c1CCCC3)CCCC2 | inconclusive [inhibitor, partial curve, poor fit] |  |
| CSc1nc(N)nc(SCC(=O)OC(C)C)c1C#N | inconclusive [inhibitor, full curve, poor fit] |  |
| Cc1c(C(=O)N2CCCC2)sc(NC(=O)c2ccccc2)c1C#N | inconclusive [inhibitor, full curve, poor fit] |  |
| CCOC(=O)NN=C1c2ccccc2-c2ccccc21 | inconclusive [inhibitor, full curve, poor fit] |  |
| O=C(COc1ccccc1)N1CCN(CC(O)COc2ccccc2)CC1 (centres undefined) |  | inactive: -0.0338% |
| CN1CCN(C(=O)CN(c2cccc(Cl)c2)S(=O)(=O)c2ccccc2)CC1 | inconclusive [inhibitor, partial curve, poor fit] |  |
| Clc1ccc(COc2ccccc2-c2ccnc3ncnn23)cc1 | inconclusive [inhibitor, partial curve] |  |
| CCOC(=O)N1CCC(NC(=O)c2ccc(CS(=O)(=O)c3c(Cl)cccc3Cl)o2)CC1 | inconclusive [inhibitor, partial curve] |  |
| COc1ccccc1NS(=O)(=O)c1cc(NC(=O)c2cccs2)ccc1N1CCCC1 | inconclusive [inhibitor, partial curve, poor fit] |  |
| Cc1ccc(-c2cc(-c3ccccc3)nc(N(C)N)n2)cc1 | inconclusive [inhibitor, partial curve, poor fit] |  |

| Compound | Potency | activity change, negative = inhibition |
| --- | --- | --- |
| COc1ccccc1Nc1nc2ccc(C)cc2cc1C#N |  | inactive: -9.05% |
| NCc1ccc2[nH]c(=O)[nH]c2c1 | inconclusive [inhibitor, single point] |  |
| COc1cc(OC)c(C(=O)CCC(=O)O)cc1OC | inconclusive [inhibitor, full curve] |  |
| CC(Oc1ccccc1Cl)C(=O)N(Cc1cccs1)C1CCS(=O)(=O)C1 (centres undefined) | inconclusive [inhibitor, full curve, poor fit] |  |
| Cc1ccc(NC(=O)C2CCN(S(=O)(=O)c3cccs3)CC2)cc1C | inconclusive [inhibitor, full curve, poor fit] |  |
| C/C(=N\NC(=S)Nc1ccc(F)cc1)C1CC1 |  | inactive: 6.09% |
| CN1CCCN(C(=O)CNC(=O)Cc2ccccc2)CC1 | inconclusive [inhibitor, full curve, poor fit] |  |
| Cc1cc(C)cc(C(=O)NC(CC(N)=O)c2ccc(N3CCN(c4ccccc4)CC3)c([N+](=O)[O-])c2)c1 (centres undefined) |  | inactive: -9.38% |
| CCCN1CC(=O)N2Cc3[nH]c4ccccc4c3C[C@H]2C1=O |  | inactive: 0.955% |
| C=CCNC(=O)c1ccc(NC(=O)C2=CSCCO2)cc1 |  | inactive: -6.63% |
| CC(C)(C)c1ccc(C(=O)N2CCN(c3nc4ccccc4o3)CC2)cc1 | inconclusive [inhibitor, full curve] |  |
| COc1ccc(S(=O)(=O)N(CC(=O)NC2CCCCC2)c2ccc(F)cc2)cc1 |  | inactive: -4.36% |
| Cc1cc(NC(=O)c2ccc(C)s2)n(-c2ccccc2)n1 | inconclusive [inhibitor, full curve, poor fit] |  |
| O=C(O)c1ccc2c(c1)N(Cc1ccccc1F)C(=O)c1ccccc1S2=O (centres undefined) | inconclusive [inhibitor, full curve, poor fit] |  |
| CCCCCOc1ccc(NC(=O)C(=O)NCCCn2ccnc2)cc1 |  | inactive: -5.84% |
| Cc1c(S(=O)(=O)N(C)C2CCCCC2)c(=O)n(C)c(=O)n1C | inconclusive [inhibitor, full curve] |  |
| COc1ccc(CCNC2CCN(C)CC2)cc1OC | inconclusive [inhibitor, partial curve, poor fit] |  |
| CN1CCN(NC(=O)c2cc(Br)ccc2Cl)CC1 | inconclusive [inhibitor, single point] |  |
| COc1ccccc1C(=O)Nc1ccc2c(c1)nc1n2CCSC1 |  | inactive: 0.518% |
| O=C(Oc1cc(=O)oc2c1c(=O)n1c3c(cccc23)CC1)c1ccc(F)cc1 | inconclusive [inhibitor, full curve, poor fit] |  |
| COC(=O)c1ccc(C(C(=O)NC2CCCCC2)N(Cc2ccc(F)cc2)C(=O)Cc2cccs2)cc1 (centres undefined) |  | inactive: -18.8% |
| COc1ccc(S(=O)(=O)Nc2cc(Cl)ccc2OC)cc1 | inconclusive [inhibitor, full curve, poor fit] |  |
| O=C(CNc1ccccc1F)Nc1cccc(S(=O)(=O)N2CCCCC2)c1 |  | inactive: -18.1% |
